# Reference: the RNAGym collection of RNA variant scans (doi:10.1101/gad.245936.114)
# This sample is rich in variants without activity.
# B1: tRNA (parent)
# chain: CUCUCGGUAGCCAAGUUGGUUUAAGGCGCAAGACUUUAAUUUAUCACUACGAAAUCUUGAGAUCGGGCGUUCGACUCGCCCCCGGGAGAUUUUUUCCUCGAGCAA
# Variants of: B1
# Test: nonsense suppression (GFP-seq) (ratio to wild type); higher = more function; SUP4oc tRNA, yeast GFP reporter sort-seq
# Outline: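 Raffinose/galactose medium with 80 mg/L adenine was used to grow yeast carrying genome-integrated tRNA variants (~3% random-mutation library), RFP, and a galactose-driven GFP ochre reporter. Cells went into GFP/RFP bins, which were Illumina-sequenced, and variants with ≥100 reads and ≥30 cells were scored. Nonsense suppression (GFPSEQ) is the per-bin median GFP/RFP weighted by estimated cell share and expressed relative to the unmutated parent tRNA.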
row,Variant,nonsense suppression
1,G65C G88C,≤ 0.026
2,G65C G88A,≤ 0.026
3,G65U U76C,≤ 0.026
4,G67C G85C,≤ 0.026
5,A62U C79A,≤ 0.026
6,G66U G73U C75A C81G,≤ 0.026
7,G67U G78C,≤ 0.026
8,G65A C77U,≤ 0.026
9,G66C G73C C82G,≤ 0.026
10,G65A C68A C77A,≤ 0.026
11,A62C G85C A89U,≤ 0.026
12,C64U C80G,≤ 0.026
13,G66C C82G,≤ 0.026
14,G65C G66A C82U,≤ 0.026
15,G67C C83G A87C,≤ 0.026
16,G66A C75U,0.368
17,G66A C75A,1.18
18,G67C C79G,1.03
19,U63C G65C,≤ 0.026
20,G67U G85C,≤ 0.026
21,G67C G73C G88A A89U,≤ 0.026
22,G66U U76A C80G G86U,≤ 0.026
23,G66A G67A,≤ 0.026
24,G66U C82G,≤ 0.026

row,Variant,nonsense suppression
1,G67A G69A G88U,≤ 0.026
2,G67A A74U,0.0276
3,C64G C75G C77U G78C C83A,≤ 0.026
4,U63A G69C G84A,≤ 0.026
5,A62G A74U,≤ 0.026
6,G61U G86A,≤ 0.026
7,U63G G85A,0.787
8,A62U G67U G69U,≤ 0.026
9,G66C G69C,≤ 0.026
10,G67A U76A,≤ 0.026
11,C64A G73U,≤ 0.026
12,G65C C77A,≤ 0.026
13,U63A G67U G78C,≤ 0.026
14,U63A G73U C82A,≤ 0.026
15,A62C C81G,≤ 0.026
16,A62C C83G,≤ 0.026
17,U63G G66U G84A,≤ 0.026
18,G61U G66C,≤ 0.026
19,G67A U71G C72U A74C,≤ 0.026
20,G67A A89C,≤ 0.026
21,G67A A89U,≤ 0.026
22,A62G C81G,≤ 0.026
23,U63C U76A,≤ 0.026
24,U63C U76C,0.693

row,Variant,nonsense suppression
1,G67U G73C,≤ 0.026
2,G65U G78A,≤ 0.026
3,U63A C72A G73C,≤ 0.026
4,G66A A74U,≤ 0.026
5,G66U U70A,≤ 0.026
6,G66U U70C,≤ 0.026
7,U63C C81G C83A G88C,≤ 0.026
8,A62C C64G U76C C79G,≤ 0.026
9,G65C U76A,≤ 0.026
10,G61C G73A,0.213
11,G67C C72U,≤ 0.026
12,G67A C75A C79A,0.203
13,A62G C72U G86U G88A,≤ 0.026
14,G66C U70C U71G,≤ 0.026
15,G66A C82G,≤ 0.026
16,G65A C79G A89G,≤ 0.026
17,G65C C79G,≤ 0.026
18,U63C A74G G78A,≤ 0.026
19,G66C G84C,≤ 0.026
20,U63A U70A G73C,≤ 0.026
21,U63G U71G G85A,≤ 0.026
22,A62G G86A,≤ 0.026
23,A62C G84A G85U G86A,≤ 0.026
24,A62C G85A,≤ 0.026

row,Variant,nonsense suppression
1,G67C G69A G85C,≤ 0.026
2,G61U U71C U76A,≤ 0.026
3,C64G C75U C80U,≤ 0.026
4,G65A G67A A87G,≤ 0.026
5,U63A G66C G86U,≤ 0.026
6,C64A C79G,≤ 0.026
7,G67C C75U,≤ 0.026
8,C64A U71A U76G C77A,≤ 0.026
9,A62C G67U C75G,≤ 0.026
10,G65U C68G,≤ 0.026
11,U63C G67U G85C,≤ 0.026
12,A62G C79U,≤ 0.026
13,G66A U76C C81U,≤ 0.026
14,C64A G69C G86C,≤ 0.026
15,A62U C68G,≤ 0.026
16,G61U C72A,≤ 0.026
17,G65C G67U,≤ 0.026
18,G61U G67U C72U,≤ 0.026
19,G67U C72G C77G,≤ 0.026
20,G66C A74U A87C,≤ 0.026
21,G65C C80A C82A,≤ 0.026
22,G66U C75A,0.704
23,G66A G86U,≤ 0.026
24,G67C C81U,≤ 0.026

row,Variant,nonsense suppression
1,G67C C81A,≤ 0.026
2,A62G C64U G67U,≤ 0.026
3,G66C G67C U71C U76A C77G,≤ 0.026
4,G65U U70A G73A A89U,≤ 0.026
5,G61U C75G A89C,≤ 0.026
6,G61U A62G C68A G88U,≤ 0.026
7,U63C G66C U71C,≤ 0.026
8,C64G G69C C80U,≤ 0.026
9,G66A U70C,≤ 0.026
10,A62G U71C,≤ 0.026
11,C64U C81A,≤ 0.026
12,U63G G86A,≤ 0.026
13,C64U A89U,≤ 0.026
14,A62U G69A U71A,≤ 0.026
15,U63C G84U,≤ 0.026
16,G61C U63A G65U,≤ 0.026
17,G66A U70C A87U,≤ 0.026
18,G66A U70C A87G,≤ 0.026
19,G65U G66U A87C,≤ 0.026
20,G65C C68A C82G,≤ 0.026
21,A62U C83A,≤ 0.026
22,U63A G67C,≤ 0.026
23,G61U C75G,1.08
24,A62U G66C C82G,≤ 0.026

row,Variant,nonsense suppression
1,A62U U71A,≤ 0.026
2,G65U C77A,≤ 0.026
3,G65C C75U G85C,≤ 0.026
4,C64A G67A G86A,≤ 0.026
5,U63G A87U,0.0518
6,G67A C77G C82U,≤ 0.026
7,C64G G66C G69A,≤ 0.026
8,G67C U71A,≤ 0.026
9,G65C C80A A87G,≤ 0.026
10,G61U G65C,≤ 0.026
11,G66C C68A,≤ 0.026
12,U63A G65U,≤ 0.026
13,A62C G65U C75G G85U,≤ 0.026
14,C64G G73U,≤ 0.026
15,G66U A87C,≤ 0.026
16,G67C G86C,≤ 0.026
17,C64G U71A,≤ 0.026
18,G65C G73U A74C G88C,≤ 0.026
19,A62C A87G,≤ 0.026
20,A62C A87C,≤ 0.026
21,G65C U76A G86A G88A,≤ 0.026
22,G65U C80G,≤ 0.026
23,G65U C80U,≤ 0.026
24,A62G G69A C79A,≤ 0.026

row,Variant,nonsense suppression
1,G67A C75G,0.194
2,C64A A87C G88U,≤ 0.026
3,G67A G84C,≤ 0.026
4,U63G G65C,≤ 0.026
5,U63G G65A,≤ 0.026
6,G65A A74C C81A,≤ 0.026
7,A62U U63C,≤ 0.026
8,C64G G66U A87G,≤ 0.026
9,G66U C81G,≤ 0.026
10,A62C G66C,≤ 0.026
11,U63A G85U,0.23
12,U63A G85A,1.09
13,G67U C68A U70A,≤ 0.026
14,U63C G73U,≤ 0.026
15,U63C G73A,0.11
16,U63G G78A,0.0891
17,A62C G69U C80A,≤ 0.026
18,C64U U71C C77U,≤ 0.026
19,G65C C68U,≤ 0.026
20,A62U G84C,0.0347
21,G66A C80G G86C,≤ 0.026
22,A62U A74U U76A G78C,≤ 0.026
23,G65U G88C,≤ 0.026
